PubChem BioAssay AID1159614 (National Center for Advancing Translational Sciences (NCATS), 2016)
Among all 45,000 compounds or so, about 65 (0.1%) were called active. Calls come from the whole dose curve; as a rule, active = well fitted activation curve with a large enough effect; inconclusive = small, poorly fitted or top-dose-only effect; inactive = no such curve, though single readings can be large or run the other way. Some of the results follow.

target: Galactocerebrosidase (Homo sapiens) (UniProt P54803); test: A Novel Cell-Based Assay to Identify Small Molecules for B -Galactocerebrosidase; settings: 145M-Twi-hGALC-G270D cells (Twitcher mouse brain line with human GALC G270D), HMU-beta-Gal fluorescence, 48 h; series mostly up to 57.5 µM; activation: at the top concentration; note: 0% is about no effect; nearly all actives have a fitted effect of over 65% in size
Procedure, shortened: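 Live 145M-Twi cells (Twitcher mouse brain-derived, GALC-null) stably expressing human GALC-G270D, with a wild-type GALC line, were compound-treated. Residual GALC activity was then read as fluorescence from 0.1 mM final HMU-β-gal at pH 5.2; higher signal means activation.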

UniProt P54803, sequence (P54803 whole entry, looked up): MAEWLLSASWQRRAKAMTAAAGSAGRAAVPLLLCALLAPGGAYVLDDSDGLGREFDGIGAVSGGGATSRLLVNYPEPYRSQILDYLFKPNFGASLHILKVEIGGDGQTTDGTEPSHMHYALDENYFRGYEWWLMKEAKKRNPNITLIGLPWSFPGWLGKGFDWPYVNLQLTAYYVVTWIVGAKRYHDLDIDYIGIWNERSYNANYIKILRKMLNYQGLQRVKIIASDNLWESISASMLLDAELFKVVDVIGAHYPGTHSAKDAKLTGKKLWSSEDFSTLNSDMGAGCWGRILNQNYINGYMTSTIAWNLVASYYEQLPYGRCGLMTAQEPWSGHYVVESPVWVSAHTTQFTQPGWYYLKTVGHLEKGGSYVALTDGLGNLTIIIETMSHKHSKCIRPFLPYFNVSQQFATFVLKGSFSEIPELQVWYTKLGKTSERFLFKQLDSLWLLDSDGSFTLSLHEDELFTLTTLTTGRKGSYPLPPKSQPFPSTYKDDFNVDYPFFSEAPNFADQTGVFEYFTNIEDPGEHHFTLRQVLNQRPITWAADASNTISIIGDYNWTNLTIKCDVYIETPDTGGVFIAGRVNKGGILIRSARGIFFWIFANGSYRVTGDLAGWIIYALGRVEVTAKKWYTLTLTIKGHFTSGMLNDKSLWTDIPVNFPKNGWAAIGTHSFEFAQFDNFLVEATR

activation, inactive:
CCOCCCn1c(=N)c(S(=O)(=O)c2ccccc2)cc2c(=O)n3cc(C)ccc3nc21 -12.8%
Cc1ccc(-n2nc(C)c3c(C)c(CCC(=O)NCc4cccc(Cl)c4)c(C)nc32)cc1C 5.69%
CCn1cc(S(=O)(=O)c2ccccc2)c(=O)c2cc(F)c(N3CCCCCC3)cc21 -7.91%
COc1ccc(-c2nc(C)c(CCNC(=O)c3cccc(C)c3)s2)cc1OC -10.7%
CCC12CN3CC(C)(CN(C1)C3c1c(C)[nH]c3ccccc13)C2=O (centres undefined) -2.65%
CCOc1ccc(C2C(C(=O)Nc3ccc(C)cc3C)=C(C)Nc3c(C(=O)Nc4ccc(C)cc4)cnn32)cc1OC (centres undefined) -11.7%
COc1ccc(CCNC(=O)C(C)n2nc(C)c3sc4ccccc4c3c2=O)cc1OC (centres undefined) -16.1%
COc1ccc(-c2nc3c(C#N)c[nH]n3c2NC2CCCCC2)cc1 20%
COc1ccc(C2NC(=O)N(C)C3=C2C(=O)N(c2ccccc2)C3)cc1 (centres undefined) 2.4%
Nc1c2c(nc3c1CCC3)CCCC2 -7.31%
COc1ccc(C(=O)Oc2c(Sc3ccc(C)cc3)c(C)nn2C(C)(C)C)c(OC)c1 -15.6%
C=Cc1ccc(Cn2c(C(=O)O)c(CNCc3cc(OC)ccc3OC)c3ccc(C)cc32)cc1 -14.6%
COCCNC(=O)C(=O)Nc1ccc2nc3n(c(=O)c2c1)CCCCC3 -5.44%
COC(=O)[C@H]1[C@H]2C[C@@H]3c4[nH]c5cc(OC)ccc5c4CCN3C[C@H]2C[C@@H](OC(=O)c2cc(OC)c(OC)c(OC)c2)[C@@H]1OC -11.1%
COc1cccc(C2=CC(c3ccccc3F)n3ncc(C(=O)Nc4ccc(F)cc4)c3N2)c1 (centres undefined) -20%
Cc1ccc(Nc2c(-c3cccnc3)nc3ccc(C)cn23)cc1 -21.8%
COc1ccccc1C(=O)NC1(C(F)(F)F)NC(=O)N(CCc2ccccc2)C1=O (centres undefined) -8.42%
O=C(CSc1nnc2scc(-c3ccc(Cl)cc3)n12)Nc1ccc(F)cc1 -23.2%
CCOCCCNC(=O)C(c1ccc(C)cc1)N(Cc1ccc2c(c1)OCO2)C(=O)c1ccccc1O (centres undefined) -6.49%
CCc1nn(CC(=O)N2CCN(c3cccc(C)c3)C(C)C2)c(=O)c2cc3sccc3n12 (centres undefined) 7.04%
Cc1cc(C)c(NC(=O)CSc2nc(=O)n(Cc3ccncc3)c3c2CCC3)c(C)c1 -5.41%
CCOC(=O)N1CCc2c(sc(NCc3cc(OC)ccc3OC)c2C(=O)Nc2cc(OC)ccc2OC)C1 -7.47%
O=C(CSc1nc2c([nH]c3ccccc32)c(=O)n1-c1ccccc1)Nc1cccc(C(F)(F)F)c1 -1.77%
O=C(NC1CCCCC1)c1ccc(CSc2nc3ccncc3n2Cc2cccc(F)c2)cc1 -16.5%
CCc1ccc(CNC(=O)c2ccc3c(c2)c(C)c(C)n3Cc2ccccc2)cc1 -27.4%
Cc1ccc(N(C)C(=O)Cn2ncc3c([nH]c4ccccc43)c2=O)cc1C -16.1%
COc1ccc(NC(=O)CCc2c(C)nn(-c3ccc(N4CCCC4)nn3)c2C)cc1Cl 16.8%
Cc1ccc(S(=O)(=O)NC(=O)NC2CCCCCCC2)cc1 -8.07%
Cc1ccc(NC(=O)CCn2cccn2)c(C)c1 -7.59%
COc1ccc(N2CCN(C(=O)Cn3cnc4sc(C)c(S(=O)(=O)N5CCCCC5)c4c3=O)CC2)cc1 -13.3%
Cc1ccc(Cn2c(=O)n(CCc3ccccc3)c(=O)c3sc4ccccc4c32)cc1 -2.63%
CCOCCCNC(=O)C1CCN(c2nc3ccc(C)cc3[nH]2)CC1 5.86%
COC(=O)c1cc(-c2ccc(Cl)cc2)c2c(=O)[nH]c(=O)n(C)c2n1 -11.1%
COCCn1c(C)cc(O)c(C(c2ccccc2)N2CCN(c3ccccc3F)CC2)c1=O (centres undefined) -0.0281%
O=C(CSc1cn(CCNC(=O)c2ccccc2F)c2ccccc12)Nc1ccc2c(c1)OCCO2 -10.7%
CC(Nc1ccc(-c2nc(-c3cccnc3)no2)cc1[N+](=O)[O-])c1ccccc1 (centres undefined) -10.2%
CCS(=O)(=O)c1ccc(C(=O)N2CCN(c3nc4c(OC)ccc(C)c4s3)CC2)cc1 -40%
O=C(O)CN(CCOCCOCCN(CC(=O)O)CC(=O)O)CC(=O)O -13.1% [at 0.46 µM]
COc1cc([C@@H]2c3cc4c(cc3[C@H](O)[C@H]3COC(=O)[C@H]23)OCO4)cc(OC)c1OC -6.6%
CC1CCCCN1Cc1nc2c(c(=O)n(C)c(=O)n2C)n1Cc1ccc(Br)cc1 (centres undefined) -12.1%
Cc1ccc2c(Sc3ccc(Cl)cc3)c(C(=O)N3CCCCC3)[nH]c2c1 -16.3%
COc1ccc(NC(=O)c2c(-c3ccc(C)cc3)nnc3ccccc23)cc1OC -7.74%
COc1ccccc1-c1nc(CNC(=O)NC2CCCCC2)c(C)o1 -10.3%
COc1cccc(NC(=O)CSc2cc(C)c3ccccc3n2)c1 -8.67%
O=C(Cn1ncc2ccsc2c1=O)N1CCN(c2ccc(Cl)cc2)CC1 -12.8%
Cc1ccc(NC(=O)CCn2nc(C)c3c(C)n(-c4ccccc4)nc3c2=O)cc1Cl -13.7%
CC(C)c1ccc(NC(=O)c2cn(C3CCCC3)c(=O)c3c2c2ccccc2n3C)cc1 -14.6%
O=C(c1ccccc1Cl)n1nc(-c2ccco2)nc1NCc1cccs1 -25%
COc1ccc(OC)c(CCNc2ncnc3onc(-c4ccc(Cl)cc4)c23)c1 -19.9%
Cc1cccc(CNC(=O)c2cnc3c(-c4cccc(C)c4)c(C)nn3c2C)c1 -8.8%
CCCCC(=O)N1c2ccccc2C(C)(c2ccccc2)CC1(C)C (centres undefined) -17.1%
Cn1c(=O)c2cc(S(=O)(=O)NC(Cc3ccccc3)C(=O)Nc3ccc(F)cc3)ccc2n(C)c1=O (centres undefined) -6.42%
CC(=O)N1CCCc2cc(S(=O)(=O)N(C)CC(=O)Nc3cccc(Cl)c3C)ccc21 -0.162%
CCc1ccc(S(=O)(=O)NCCc2cn3ccsc3n2)cc1 4%
Cc1nc(-n2nc(C)c(Cc3ccc(Cl)cc3)c2C)sc1C(=O)N1CCC(C)CC1 -2.82%
Cc1ccc(NC(=O)CSc2nc3c(oc4ccccc43)c(=O)n2Cc2ccco2)cc1F -3.48%
Cc1ccccc1Cn1c2ccccc2c2cnn(CC(=O)NCc3cccc(Cl)c3)c(=O)c21 -24.5%
CCN(CC)c1ccc(NC(=O)COCc2cc(-c3ccc4c(c3)OCO4)on2)c(C)c1 -21.1%
Cc1ccc(N2CCN(C(=O)c3c(C)oc4ncn(C)c(=O)c34)CC2)c(C)c1 -10%
CCOC(=O)c1ccc(CN(Cc2ccc(F)cc2)S(=O)(=O)c2ccc(F)c(C(=O)Nc3cc(Cl)ccc3OC)c2)cc1 -15.8%
Cn1cc(-c2cc3n(n2)CCC(=O)N3CCCC(=O)Nc2ccc(Cl)cc2)c2ccccc21 -2.77%
CC(=O)N1CCCc2cc(S(=O)(=O)N(C)CC(=O)Nc3ccc(C(C)C)cc3)ccc21 18.4%
CC(C)c1ccc(OCC(=O)Nc2ccc(S(=O)(=O)Nc3ncccn3)cc2)cc1 -10.4%
OC1(c2ccc(Cl)cc2)CCNCC1 -15.7%
COc1ccc(NC(=O)Cn2ccn(-c3ccc(F)c(F)c3)c(=O)c2=O)cc1Cl -20.7%
COc1ccc(CNC(=O)CCC2N=C3c4ccccc4N=C(SCC(=O)NCCc4ccc(OC)c(OC)c4)N3C2=O)cc1 (centres undefined) -15.5%
COc1cccc(CNC(=O)c2sc3nc[nH]c(=O)c3c2C)c1 -6.73%
CN(C)CCCSc1ccccc1NC(=O)/C=C/c1ccccc1 25.3%
CC(C)OC(=O)c1c(NC(=O)c2cccc(C(F)(F)F)c2)sc2c1CCCC2 -12.3%
O=C1CC(c2ccccc2)Sc2ccccc2N1Cc1ccccc1F (centres undefined) -2.77%
Cc1cccc(C)c1OCCn1c(CCNC(=O)C2CCCCC2)nc2ccccc21 -20%
COc1ccc(C2Nc3ccccc3-c3cc(C)nn32)c(OC)c1 (centres undefined) -10.5%
COc1ccc(C)c2sc(NC(=O)c3ccc(S(=O)(=O)N4CCOCC4)cc3)nc12 -7.14%
COc1ccccc1CNC(=O)C(=O)NCC(c1ccco1)S(=O)(=O)c1ccc(F)cc1 (centres undefined) -8.39%
COc1ccc(C(=O)Oc2c(Sc3ccccc3)c(C)nn2-c2ccccc2)c(OC)c1 -13.1%
COc1cccc(N2CCN(C(=O)c3cnc4c(-c5ccc(F)cc5)c(C)nn4c3C)CC2)c1 -15.8%
CCN(CC)S(=O)(=O)c1ccc2c(c1)N(CC(=O)Nc1ccc(Cl)cc1)C(=O)C1CCCN21 (centres undefined) -15%
CC(C)(C)c1ccc(C(=O)NCC(c2ccco2)S(=O)(=O)c2ccccc2)cc1 (centres undefined) -14.5%
COC(=O)c1ccccc1NS(=O)(=O)c1cc2c3c(c1)CC(=O)N3CCC2 -11.6%
CC1=C(C(=O)Nc2ccccc2)C(c2ccccn2)n2nc(SCc3ccccc3)nc2N1 (centres undefined) -21.2%
Cc1ccc2c(c1)C(c1ccccc1)N(C(=O)COc1ccc(Cl)cc1Cl)CC(=O)N2 (centres undefined) -8.1%
Cc1ccc(-n2nc(C)c3c(C(=O)Nc4ccccc4C(F)(F)F)cc(C)nc32)cc1 -6.45%
Cc1c(Cl)ccc2sc(N3CCN(C(=O)CCS(=O)(=O)c4ccc(F)cc4)CC3)nc12 -32.4%
COc1ccc(-c2nc3ccccc3n2Cc2ccccc2)cc1 -17.1%
CCCCCOc1ccc(NC(=O)Cn2c(-c3nonc3N)nc3ccccc32)cc1 -7.19%
CCOc1ccc2nc(N(Cc3cccnc3)C(=O)c3cccs3)sc2c1 -11.2%
COc1cccc(-c2nc(Cn3c(=O)cc(C)c4c(C)nn(-c5ccccc5)c43)c(C)o2)c1OC -8.2%
COc1cccc(C(=O)Nc2nc(-c3nnn(-c4ccccc4C(F)(F)F)c3C)ns2)c1 5.83%
COc1cccc(CNC(=O)Cn2nc(C)n3c(cc4cc(C)ccc43)c2=O)c1OC -7.28%
CCSc1nc(-c2cccc(Cl)c2)nc2c1Cc1c(CO)cnc(C)c1O2 -7.82%
CCCN(C(=O)c1cc2c(=O)oc3ccc(C)cc3c2s1)c1ccc(OCC)cc1 3.18%
CCCCN1C(=O)C(O)(CC(=O)c2ccc(CC)cc2)c2cc(Br)ccc21 (centres undefined) -7.59%
CC(C)CN(C(=O)c1cccc(S(=O)(=O)N2CCCCC2)c1)C1CCS(=O)(=O)C1 (centres undefined) -24.7%
Cc1ccc2nc(Nc3cccc(Cl)c3C)c(-n3nc(C)cc3C)nc2c1 -17.1%
